The campaign covered roughly 210,000 compounds. About 5,900 (2.8%) were called active. The inconclusive results got no clear call from the source; some entries with a clear call stand among them for comparison. Calls come from the whole dose curve; as a rule, active = well fitted activation curve with a large enough effect; inconclusive = small, poorly fitted or top-dose-only effect; inactive = no such curve, though single readings can be large or run the other way. Potencies of inconclusive entries are doubtful fits and often do not repeat.
assay: qHTS Assay for Enhancers of SMN2 Splice Variant Expression; details: HEK293 SMN2-luciferase splicing reporter, luminescence, 30-36 h; activity change, positive = activation: at 46.1 µM (top of the series); note: nearly all actives have a fitted effect of over 55% in size; for activity change, positive = activation: % of control where 0% means no effect
Outline: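 HEK293 cells carry an SMN2 […]–luciferase reporter in which exon 7 inclusion puts luciferase in frame. Cells were plated 10-12 h before compound addition, then incubated 30-36 h at 37C. ONE-Glo luminescence was read; sodium butyrate at 4.5 mM final served as control.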
Potency is the fitted concentration of half-maximal effect; tags give direction and shape of the fitted curve.

SMILES	Potency	activity change, positive = activation
O=C(Nc1nccs1)C1CCN(S(=O)(=O)c2cnc[nH]2)CC1	inconclusive: 0.891 µM [activator, full curve]	
O=[N+]([O-])c1ccccc1/C=N/Nc1nc(N2CCCC2)nc(N2CCCC2)n1	inconclusive: 5.01 µM [activator, single point]	
CC(C)Cn1c(=O)c2ccccc2c2ccccc2c1=O	inconclusive: 2 µM [activator, partial curve, poor fit]	
COC(=O)C1CCN(C(=O)COc2ccc(Cl)cc2)CC1	inconclusive: 0.0032 µM [activator, full curve, poor fit]	
CC(=O)Nc1nc2cc3c(cc2s1)OCO3	inconclusive: 15.8 µM [activator, single point]	
Cc1ccc(-c2cc(C(=O)OCn3nnc4ccccc4c3=O)c3ccccc3n2)cc1	inconclusive: 10 µM [activator, partial curve]	
COc1cc(-c2nn3c(Cc4ccccc4)nnc3s2)cc(OC)c1OC	inconclusive: 17.8 µM [activator, single point]	
O=C(CNC(=S)NC(=O)C1CCCCC1)c1ccccc1	inconclusive: 2.82 µM [activator, partial curve]	
Cc1ccc(C(=O)Nc2cnc3ccccn3c2=O)cc1	active: 11.2 µM	
Cc1nc2ccc(NC(=O)COc3ccccc3F)cc2s1	inconclusive: 35.5 µM [activator, single point]	
CN1CCS/C1=C/C=C1/SC(=S)N(Cc2ccccc2)C1=O	inactive	
Cc1cccc(C#N)c1NC1=CC(=O)CC(C)(C)C1	inconclusive: 20 µM [activator, partial curve]	
CCOC(=O)c1cc(NC(=O)c2ccc(F)cc2)c(=O)n2c1oc1ccc(Cl)cc12	inconclusive: 0.0032 µM [activator, full curve, poor fit]	
CCN(CC)CCN(C(=O)CCOc1ccccc1)c1nc2ccc(F)cc2s1	inactive	
Cc1nnc(SC(C)C(=O)N2CCc3ccccc32)s1 (stereo not given)	inconclusive: 0.0126 µM [activator, full curve, poor fit]	
COc1ccc(NC2=C(Cl)C(=O)N(CCc3ccccc3)C2=O)c(OC)c1	inconclusive: 0.005 µM [activator, full curve, poor fit]	
Cc1ccc(CC2CC(=O)N(c3ccc(Cl)cn3)C2=O)cc1 (stereo not given)	inconclusive: 0.891 µM [activator, full curve, poor fit]	
Cc1ccc(/C(N)=N/OC(=O)c2ccc(C)cc2Cl)cc1	inconclusive: 3.55 µM [activator, full curve]	
O=C(Cc1ccc(Cl)cc1)NCCN1CCCC1	inconclusive: 8.91 µM [activator, partial curve]	
CCOc1ccccc1-n1nnc(S(=O)(=O)c2ccc(C)cc2)c1N	inactive	
COc1cc(NC(=O)c2ncn(-c3ccccc3)n2)cc(OC)c1	inconclusive: 11.2 µM [activator, partial curve, poor fit]	
COc1ccc(C2=Nn3c(nnc3-c3ccc(OC)cc3)SC2)cc1	inconclusive: 0.0009 µM [activator, full curve, poor fit]	
O=C(NNc1ccccn1)C(=O)NNS(=O)(=O)c1ccc(F)cc1	inactive	
O=C(CCCOc1ccccc1)Nc1cccc(C(=O)O)c1	inconclusive: 31.6 µM [activator, partial curve, poor fit]	

SMILES	Potency	activity change, positive = activation
COc1ccc(OC)c(S(=O)(=O)Nc2cccc(F)c2)c1	inconclusive: 0.0224 µM [activator, full curve, poor fit]	
ON=C1/C(=N\O)CC2(C/C1=N/O)OCCO2	inconclusive: 11.2 µM [activator, single point]	
Cc1cc(OCC(=O)N(C)C2CCCCC2)ccc1Cl	inconclusive: 11.2 µM [activator, partial curve, poor fit]	
Cc1cccc(C(=O)Nc2cccc(C(=O)N/N=C/c3ccncc3)c2)c1	inconclusive: 0.224 µM [activator, single point]	
CCn1nc(C)cc1-c1n[nH]c(=S)n1N	inactive	
CCn1nnnc1SCC(=O)Nc1nnc(C(C)C)s1	active: 0.398 µM	
O=C(O)c1ccc(COc2ccc(Cl)cc2)o1	active: 11.2 µM	
COC(=O)c1sc(NC(=O)/C=C/c2ccc(C)o2)nc1C	inconclusive: 4.47 µM [activator, full curve]	
CN(C)S(=O)(=O)c1ccc(C(=O)Nc2ccccc2F)cc1	inactive	
CN(C)Cc1c(O)ccc2c3c(c(=O)oc12)CCCCC3	inconclusive: 3.98 µM [activator, single point]	
CCCCNC(=O)c1cc(-c2ccc(OC)cc2)on1	active: 14.1 µM	
CCOc1cc(/C=N/NC(=O)c2cccs2)ccc1OC(=O)N1CCOCC1	inactive	
O=C(NS(=O)(=O)c1ccc(F)cc1)O[C@@H]1C(=O)c2cc(Br)ccc2O[C@H]1c1ccc2c(c1)OCO2	inactive	
O=C(NCCc1cccs1)C1CC(c2ccc([N+](=O)[O-])cc2)=NO1 (stereo not given)	inconclusive: 5.01 µM [activator, partial curve]	
O=C(C1Cc2ccccc2CN1S(=O)(=O)c1cccs1)N1CCCCCC1 (stereo not given)	inconclusive: 0.158 µM [activator, full curve]	
CC(=O)c1sc(NC(=O)COc2ccc(Cl)cc2Cl)nc1C	inconclusive: 8.91 µM [activator, partial curve, poor fit]	
CC(C)CCNC(=O)C(=O)NC1CCCC1	inconclusive: 20 µM [activator, single point]	
Cc1cc(N)n2nc(-c3ccc(C(C)(C)C)cc3)cc2n1	inconclusive: 2.24 µM [activator, partial curve]	
CC(=O)C1=C(C)OC(N)=C(C#N)C1c1cc2cc(C)c(C)cc2nc1Cl (stereo not given)	inconclusive: 3.98 µM [activator, full curve, poor fit]	
Cc1ccc(N2C(=O)C3NN=C(C(=O)OCc4ccccc4)C3C2=O)cc1 (stereo not given)	inconclusive: 0.794 µM [activator, single point]	
O=C(CSc1ccc(F)cc1)NC1CCCCC1	inconclusive: 35.5 µM [activator, single point]	
O=C(O)CC1S/C(=N/N=C2CCCCC2)N(c2ccccc2)C1=O (stereo not given)	inconclusive: 6.31 µM [activator, single point]	
CCCCOc1ccc(C(=O)N(Cc2nc(-c3ccc(Cl)cc3)no2)C(C)C)cc1	inactive	
N#C/C(=C\c1ccc(-c2ccc(C(=O)O)cc2)o1)c1nc2ccccc2[nH]1	inconclusive: 5.62 µM [activator, single point]	

SMILES	Potency	activity change, positive = activation
CCN(CC)c1ccc(NC(=O)Cn2c(C(C)NC(=O)c3ccccc3)nc3ccccc32)cc1 (stereo not given)	inconclusive: 2.24 µM [activator, partial curve, poor fit]	
FC(F)(F)c1nnc2c(Sc3ccccc3)nc3ccccc3n12	inconclusive: 14.1 µM [activator, single point]	
Cc1cccc(/C(N)=N/OC(=O)c2ccc(Br)o2)c1	inconclusive: 20 µM [activator, single point]	
CSc1nc2c(cnn2-c2ccccc2)c(=O)n1N	inconclusive: 2.51 µM [activator, partial curve, poor fit]	
Cc1c(C(=O)N2CCCCC2)nnn1-c1nonc1N	inconclusive: 0.0032 µM [activator, full curve, poor fit]	
Cc1nn(Cc2c(Cl)cccc2Cl)c(Cl)c1/C=N/NC(=O)c1cccnc1	inactive	
Cc1c(CC(=O)NCc2ccccc2Cl)c(=O)oc2cc(O)ccc12	inactive	
Cc1c(NC(=O)CN2CCN(C(c3ccccc3)c3ccccc3)CC2)c(=O)n(-c2ccccc2)n1C	inconclusive: 0.0224 µM [activator, full curve, poor fit]	
Cc1ccc(NCC(=O)c2ccc([N+](=O)[O-])cc2)cc1	inconclusive: 31.6 µM [activator, single point]	
COc1ccc(NC(=O)CN(c2ccc(C)cc2)S(=O)(=O)c2cccs2)cc1	inactive	
O=C(CCCn1c(=O)c2ccccc2n(Cc2cccc(F)c2)c1=O)NCc1ccccc1Cl	inactive	
CCOc1ccc(NC(=O)c2ccc(N)cc2)cc1	inconclusive: 15.8 µM [activator, single point]	
CC(C)=CCCC1=CC[C@H](C(=O)O)[C@H](C(=O)O)C1	inactive	
COc1cccc(NCc2cc(=O)oc3cc(-c4ccccc4)c(O)cc23)c1	inconclusive: 22.4 µM [activator, partial curve]	
Cc1csc2c(=O)n3c(nc12)CCCCC3	inconclusive: 12.6 µM [activator, partial curve, poor fit]	
O=C(O)COc1ccc2c(-c3ccccc3)cc(=O)oc2c1	inconclusive: 35.5 µM [activator, partial curve, poor fit]	
Nc1nc2c(ncn2[C@@H]2C=C[C@@H](CO)C2)c(=O)[nH]1		inactive: -12.7% [at 9.22 µM]
C=CCOC(=O)CCP(=O)(CCC(=O)OCC=C)c1ccccc1	inconclusive: 35.5 µM [activator, partial curve, poor fit]	
O=C(Nc1ccc(-c2cn3ccsc3n2)cc1)C1CC1	inconclusive: 35.5 µM [activator, single point]	
COC(=O)c1nc2ccc(N3CCOCC3)cc2c(C)c1C(=O)OC	active: 10 µM	
Cc1ccc2nc(-c3c[nH]c4ccccc34)c(Nc3ccc(F)cc3)n2c1	active: 14.1 µM	
COc1ccc(C(=O)Nc2ccccc2N2CCOCC2)cc1[N+](=O)[O-]	inactive	

Reference: PubChem BioAssay AID1458 (National Center for Advancing Translational Sciences (NCATS), 2008)
